From the supplement of paper PMC8728848
The list shows a part of the results.

Legend:
Experiment in all cases: glycan array binding signal (z-score within array); higher = stronger binding
Settings in all cases: glycan notation: IUPAC condensed, linker removed
[1] = biological target: Fuc(a1-2)[GalNAc(a1-3)]Gal(b1-3)GlcNAc(b1-6)GalNAc
In short: (§1)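 The binding signal is a Z-score computed within each array and averaged over linkers. Arrays of the same protein sequence at different concentrations or buffers were also averaged together. Data originate from 3228 arrays in the Consortium for Functional Glycomics database, kept only where the protein sequence was available.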

[2] = biological target: Fuc(a1-2)[GalNAc(a1-3)]Gal(b1-4)Glc
In short: as §1

[3] = biological target: Fuc(a1-2)[GalNAc(a1-3)]Gal(b1-4)GlcNAc
In short: as §1

[4] = biological target: Fuc(a1-2)[GalNAc(a1-3)]Gal(b1-4)GlcNAc(b1-2)Man
In short: as §1

[5] = biological target: Fuc(a1-2)[GalNAc(a1-3)]Gal(b1-4)GlcNAc(b1-2)Man(a1-3)[Fuc(a1-2)[GalNAc(a1-3)]Gal(b1-4)GlcNAc(b1-2)Man(a1-6)]Man(b1-4)GlcNAc(b1-4)GlcNAc
In short: as §1

[6] = biological target: Fuc(a1-2)[GalNAc(a1-3)]Gal(b1-4)GlcNAc(b1-2)Man(a1-3)[Fuc(a1-2)[GalNAc(a1-3)]Gal(b1-4)GlcNAc(b1-2)Man(a1-6)]Man(b1-4)GlcNAc(b1-4)[Fuc(a1-6)]GlcNAc
In short: as §1

[7] = biological target: Fuc(a1-2)[GalNAc(a1-3)]Gal(b1-4)GlcNAc(b1-3)Gal(b1-4)GlcNAc
In short: as §1

[8] = biological target: Fuc(a1-2)[GalNAc(a1-3)]Gal(b1-4)GlcNAc(b1-3)Gal(b1-4)GlcNAc(b1-3)Gal(b1-4)GlcNAc
In short: as §1

[9] = biological target: Fuc(a1-2)[GalNAc(a1-3)]Gal(b1-4)GlcNAc(b1-3)GalNAc
In short: as §1

[10] = biological target: Fuc(a1-2)[GalNAc(a1-3)]Gal(b1-4)GlcNAc(b1-3)[Fuc(a1-2)[GalNAc(a1-3)]Gal(b1-4)GlcNAc(b1-6)]GalNAc
In short: as §1

[11] = biological target: Fuc(a1-2)[GalNAc(a1-3)]Gal(b1-4)GlcNAc(b1-6)GalNAc
In short: as §1

[12] = biological target: Fuc(a1-2)[GalNAc(a1-3)]Gal(b1-4)[Fuc(a1-3)]GlcNAc
In short: as §1

[13] = biological target: Fuc(a1-2)[GalNAc(a1-3)]Gal(b1-4)[Fuc(a1-3)]GlcNAc(b1-3)GalNAc
In short: as §1

[14] = biological target: Fuc(a1-2)[GalNAc(a1-4)]Gal(b1-4)GlcNAc
In short: as §1

[15] = biological target: Fuc(a1-2)[GalNAc(b1-3)]Gal
In short: as §1

[16] = biological target: Fuc(a1-3)GlcNAc
In short: as §1

[17] = biological target: Fuc(a1-3)[Gal(b1-4)]Glc6S
In short: as §1

[18] = biological target: Fuc(a1-3)[Gal(b1-4)]GlcNAc
In short: as §1

[19] = biological target: Fuc(a1-3)[Gal(b1-4)]GlcNAc(b1-2)Man
In short: as §1

[20] = biological target: Fuc(a1-3)[Gal(b1-4)]GlcNAc(b1-2)Man(a1-3)[Fuc(a1-3)[Gal(b1-4)]GlcNAc(b1-2)Man(a1-6)]Man(b1-4)GlcNAc(b1-4)GlcNAc
In short: as §1

[21] = biological target: Fuc(a1-3)[Gal(b1-4)]GlcNAc(b1-2)Man(a1-3)[Fuc(a1-3)[Gal(b1-4)]GlcNAc(b1-2)Man(a1-6)]Man(b1-4)GlcNAc(b1-4)[Fuc(a1-6)]GlcNAc
In short: as §1

[22] = biological target: Fuc(a1-3)[Gal(b1-4)]GlcNAc(b1-3)Gal(b1-3)[Fuc(a1-4)]GlcNAc
In short: as §1

[23] = biological target: Fuc(a1-3)[Gal(b1-4)]GlcNAc(b1-3)Gal(b1-4)[Fuc(a1-3)]GlcNAc
In short: as §1

[24] = biological target: Fuc(a1-3)[Gal(b1-4)]GlcNAc(b1-3)Gal(b1-4)[Fuc(a1-3)]GlcNAc(b1-3)Gal(b1-4)[Fuc(a1-3)]GlcNAc
In short: as §1

[25] = biological target: Fuc(a1-3)[Gal(b1-4)]GlcNAc(b1-3)GalNAc
In short: as §1

[26] = biological target: Fuc(a1-3)[Gal(b1-4)]GlcNAc(b1-6)GalNAc
In short: as §1

[27] = biological target: Fuc(a1-3)[Gal(b1-4)]GlcNAc(b1-6)[Gal(b1-3)GlcNAc(b1-3)]Gal(b1-4)Glc
In short: as §1

[28] = biological target: Fuc(a1-3)[Gal(b1-4)]GlcNAc6S
In short: as §1

[29] = biological target: Fuc(a1-3)[Gal3S(b1-4)]Glc
In short: as §1

[30] = biological target: Fuc(a1-3)[Gal3S(b1-4)]GlcNAc
In short: as §1

[31] = biological target: Fuc(a1-3)[Gal3S(b1-4)]GlcNAc6S
In short: as §1

[32] = biological target: Fuc(a1-3)[GalNAc(b1-4)]GlcNAc
In short: as §1

[33] = biological target: Fuc(a1-3)[GalNAc(b1-4)]GlcNAc6S
In short: as §1

[34] = biological target: Fuc(a1-4)GlcNAc
In short: as §1

[35] = biological target: Fuc(b1-3)GlcNAc
In short: as §1

[36] = biological target: Gal(a1-2)Gal
In short: as §1

[37] = biological target: Gal(a1-3)Gal
In short: as §1

B1: EULS2 M2 (Oryza sativa) (protein)
chain: MVYCRANPNYAMTARNGAVVLAPANPKDEYQHWIKDMRWSTSIKDEEGYPAFALVNKATGQAIKHSLGQSHPVRLVPYNPEVMDESVLWTESRDVGNGFRCIRMVNNIYLNFDAFHGDKYHGGVRDGTDIVLWKLCEGDSQRWKIQPYYILEQKLISEEDLNSAVDHHHHHH
[1]
  glycan array binding signal (z-score): 1.16
[2]
  glycan array binding signal (z-score): 0.073
[3]
  glycan array binding signal (z-score): -0.633
[4]
  glycan array binding signal (z-score): -0.252
[5]
  glycan array binding signal (z-score): -0.088
[6]
  glycan array binding signal (z-score): -0.069
[7]
  glycan array binding signal (z-score): -0.383
[8]
  glycan array binding signal (z-score): -0.134
[9]
  glycan array binding signal (z-score): 0.869
[10]
  glycan array binding signal (z-score): -0.329
[11]
  glycan array binding signal (z-score): -0.496
[12]
  glycan array binding signal (z-score): -0.514
[13]
  glycan array binding signal (z-score): -0.09
[14]
  glycan array binding signal (z-score): -0.192
[15]
  glycan array binding signal (z-score): -0.03
[16]
  glycan array binding signal (z-score): -0.469
[17]
  glycan array binding signal (z-score): 0.658
[18]
  glycan array binding signal (z-score): -0.403
[19]
  glycan array binding signal (z-score): -0.319
[20]
  glycan array binding signal (z-score): 0.029
[21]
  glycan array binding signal (z-score): -0.168
[22]
  glycan array binding signal (z-score): 0.378
[23]
  glycan array binding signal (z-score): 0.057
[24]
  glycan array binding signal (z-score): -0.784
[25]
  glycan array binding signal (z-score): -0.239
[26]
  glycan array binding signal (z-score): -0.155
[27]
  glycan array binding signal (z-score): -0.214
[28]
  glycan array binding signal (z-score): -0.32
[29]
  glycan array binding signal (z-score): 0.041
[30]
  glycan array binding signal (z-score): -0.355
[31]
  glycan array binding signal (z-score): 0.046
[32]
  glycan array binding signal (z-score): -0.453
[33]
  glycan array binding signal (z-score): -0.107
[34]
  glycan array binding signal (z-score): -0.415
[35]
  glycan array binding signal (z-score): 0.166
[36]
  glycan array binding signal (z-score): -0.374
[37]
  glycan array binding signal (z-score): 0.006
